The results in this text go back to the antibiotic and cytotoxicity screens of Wong et al. (2023).

One experiment concerns HSkMC. As to the kind of experiment: cytotoxicity call (relative viability < 0.9). The following applies: 10 µM.
For another experiment, the system named is HepG2. As to the kind of experiment: cytotoxicity call (relative viability < 0.9). The following applies: 10 µM.
The test system of another experiment is S. aureus RN4220. As to the kind of experiment: growth inhibition call (relative growth <= 0.2). The following applies: 50 µM.

This is one part of the list.

Consider `C[C@H](CO)N1C[C@H](C)[C@H](CN(C)Cc2ccccc2)OCCCC[C@H](C)Oc2ccc(NC(=O)Nc3ccc(F)cc3)cc2C1=O`, for which the cytotoxicity call in the experiment on HSkMC is “inactive”. For the same molecule, in the experiment on HepG2, the cytotoxicity call was “active”. For the same molecule, in the experiment on S. aureus RN4220, the growth inhibition call was “inactive”.
On to `O=C(O)CCCCCCNC(=O)c1ccc(NCc2cn(Cc3ccc(Cn4cc(CNc5ccc(C(=O)NCCCCCCC(=O)NO)cc5)nn4)cc3)nn2)cc1`, for which the cytotoxicity call in the experiment with HSkMC and with HepG2 was “inactive” throughout. Moreover, in the experiment on S. aureus RN4220, the growth inhibition call was “inactive”.
Regarding `COc1ccc(CN(C)C[C@H]2Oc3ccc(NC(=O)C4CC4)cc3CC(=O)N([C@@H](C)CO)C[C@@H]2C)cc1`, the cytotoxicity call with HSkMC and with HepG2 was “inactive” throughout. In the experiment on S. aureus RN4220, the growth inhibition call was “inactive”.
Turning to `Cc1ccc(S(=O)(=O)NCC[C@@H]2CC[C@@H](NS(=O)(=O)c3ccccc3Cl)[C@H](CO)O2)cc1`, the cytotoxicity call with HSkMC and with HepG2 was “inactive” in each case. In addition, in the experiment with S. aureus RN4220, the growth inhibition call is “inactive”.
`C[C@@H]1CCCCO[C@H](CN(C)Cc2ccc(C(F)(F)F)cc2)[C@H](C)CN([C@@H](C)CO)C(=O)c2cc(NC(=O)CCC(F)(F)F)ccc2O1`: the cytotoxicity call in the experiment with HSkMC was “inactive”. Further, the cytotoxicity call in the experiment with HepG2 was “active”. The growth inhibition call with S. aureus RN4220 is “inactive”.
With `C[C@@H]1CCCCO[C@H](CN(C)S(=O)(=O)c2ccc(F)cc2)[C@@H](C)CN([C@H](C)CO)C(=O)c2cc(NC(=O)c3ccccc3)ccc2O1`, the cytotoxicity call in the experiment with HSkMC and with HepG2 was “inactive” in each case. Besides, in the experiment on S. aureus RN4220, the growth inhibition call is “inactive”.
With `C[C@@H]1CN([C@@H](C)CO)C(=O)Cc2cc(NC(=O)CCC(F)(F)F)ccc2O[C@H]1CN(C)S(=O)(=O)c1cccs1`, the cytotoxicity call in the experiment with HSkMC and in the experiment with HepG2 was “inactive” each time. Besides, the growth inhibition call with S. aureus RN4220 was “inactive”.
On to `CCn1nnc2c1CCN(S(=O)(=O)c1cn(C)cn1)[C@@H]2COC`, for which the cytotoxicity call in the experiment with HSkMC and with HepG2 was “inactive” throughout. In addition, the growth inhibition call with S. aureus RN4220 is “inactive”.
Turning to `CO[C@@H]1CN(C)C(=O)c2ccc(NC(=O)c3ccc(Oc4ccccc4)cc3)cc2OC[C@@H](C)N(C(C)=O)C[C@H]1C`, the cytotoxicity call with HSkMC and with HepG2 was “inactive” in each case. Also, in the experiment with S. aureus RN4220, the growth inhibition call was “inactive”.
Consider `COc1ccc(S(=O)(=O)Nc2cccc3c2O[C@H](CN(C)C(=O)NC(C)C)[C@@H](C)CN([C@@H](C)CO)C3=O)cc1`, for which the cytotoxicity call in the experiment on HSkMC and with HepG2 was “inactive” in each case. The growth inhibition call in the experiment with S. aureus RN4220 was “inactive”.
With `C[C@H](CO)N1C[C@H](C)[C@@H](CN(C)C(=O)Nc2ccc(F)cc2)Oc2ccc(NC(=O)Cn3cnnn3)cc2C1=O`, the cytotoxicity call in the experiment with HSkMC and with HepG2 was “inactive” throughout. Moreover, in the experiment on S. aureus RN4220, the growth inhibition call is “inactive”.
`C[C@@H]1CCCCO[C@H](CN(C)Cc2ccc(C(F)(F)F)cc2)[C@@H](C)CN([C@@H](C)CO)C(=O)c2cc(NS(=O)(=O)c3cn(C)cn3)ccc2O1`: the cytotoxicity call with HSkMC and in the experiment with HepG2 was “inactive” in each case. The growth inhibition call with S. aureus RN4220 was “inactive”.
For the molecule `COc1ccc(NC(=O)Nc2cccc3c2O[C@@H](CN(C)S(=O)(=O)c2cn(C)cn2)[C@@H](C)CN([C@@H](C)CO)C3=O)cc1`, the cytotoxicity call with HSkMC and in the experiment on HepG2 was “inactive” each time. The growth inhibition call with S. aureus RN4220 was “inactive”.
Turning to `C[C@H](CO)N1C[C@H](C)[C@@H](CN(C)Cc2ccc(F)cc2)Oc2cc(C#CC3CC3)ccc2S1(=O)=O`, the cytotoxicity call in the experiment with HSkMC and in the experiment on HepG2 was “inactive” throughout. In the experiment on S. aureus RN4220, the growth inhibition call is “inactive”.
Consider `COc1ccc(S(=O)(=O)Nc2ccc3c(c2)C(=O)N([C@@H](C)CO)C[C@H](C)[C@H](CN(C)C(=O)C2CCCCC2)OCCCC[C@H](C)O3)cc1`, for which the cytotoxicity call with HSkMC and with HepG2 was “inactive” in each case. In the experiment on S. aureus RN4220, the growth inhibition call was “inactive”.
`C[C@@H]1CN([C@@H](C)CO)C(=O)CCCn2nncc2CO[C@@H]1CN(C)C(=O)Nc1cccc(C(F)(F)F)c1`: the cytotoxicity call in the experiment on HSkMC and in the experiment with HepG2 was “inactive” throughout. Besides, in the experiment on S. aureus RN4220, the growth inhibition call was “inactive”.
For `COc1cc(C)c(C(=O)Oc2cc(C)c(C(=O)O)c(O)c2C)c(OC)c1C`, the cytotoxicity call in the experiment on HSkMC and in the experiment with HepG2 was “inactive” each time. Moreover, the growth inhibition call in the experiment with S. aureus RN4220 is “inactive”.
As to `Cn1c2c(c(=O)n(C)c1=O)CN(CC1CC1)CN2`, the cytotoxicity call in the experiment with HSkMC and with HepG2 was “inactive” throughout. For the same molecule, the growth inhibition call in the experiment on S. aureus RN4220 was “inactive”.
In the case of `CO[C@H]1CN(C)C(=O)c2ccc(NS(=O)(=O)CC(F)(F)F)cc2OC[C@H](C)N(C(=O)c2ccc3c(c2)OCO3)C[C@@H]1C`, the cytotoxicity call in the experiment on HSkMC and with HepG2 was “inactive” in each case. In addition, the growth inhibition call with S. aureus RN4220 is “inactive”.
For `CN1CC2(CCC1=O)CCN(C(=O)c1cc(=O)n(C)c(=O)n1C)CC2`, the cytotoxicity call in the experiment on HSkMC (human skeletal muscle cells) and with HepG2 was “inactive” throughout. Also, in the experiment on S. aureus RN4220, the growth inhibition call is “inactive”.
Turning to `Nc1cc(-c2ccccc2)ccc1O`, the cytotoxicity call with HSkMC and in the experiment on HepG2 was “inactive” in each case. Moreover, the growth inhibition call with S. aureus RN4220 is “inactive”.
As to `CC(C)CC#Cc1cnc2c(c1)C(=O)N([C@@H](C)CO)C[C@@H](C)[C@H](CN(C)C(=O)CCN1CCCCC1)O2`, the cytotoxicity call with HSkMC and in the experiment on HepG2 was “inactive” in each case. Further, the growth inhibition call in the experiment on S. aureus RN4220 is “inactive”.
For `C[C@@H](Oc1cc(-n2cnc3ccc(CN4CCN(C)CC4)cc32)sc1C(N)=O)c1ccccc1C(F)(F)F`, the cytotoxicity call in the experiment with HSkMC and with HepG2 was “active” in each case. Moreover, the growth inhibition call in the experiment on S. aureus RN4220 was “inactive”.
As for `C[C@H](C(=O)O)c1ccc(C2CCCCC2)c2ccccc12`, the cytotoxicity call in the experiment with HSkMC and with HepG2 was “inactive” throughout. Moreover, the growth inhibition call in the experiment on S. aureus RN4220 was “inactive”.
Regarding `NNC(=O)c1ccc(OC[C@@H](O)CO)cc1O`, the cytotoxicity call with HSkMC and in the experiment with HepG2 was “inactive” in each case. Moreover, the growth inhibition call in the experiment on S. aureus RN4220 is “inactive”.
In the case of `O=C(O)[C@@H]1CCCCN1`, the cytotoxicity call in the experiment with HSkMC and in the experiment on HepG2 was “inactive” throughout. Moreover, the growth inhibition call with S. aureus RN4220 is “inactive”.
Regarding `COc1ccc(NC(=O)Nc2ccc3c(c2)CC(=O)N([C@H](C)CO)C[C@@H](C)[C@H](CN(C)S(=O)(=O)c2c(C)noc2C)O3)cc1`, the cytotoxicity call with HSkMC and with HepG2 was “inactive” throughout. Besides, the growth inhibition call in the experiment on S. aureus RN4220 was “inactive”.
